PubChem BioAssay AID1963576 (National Center for Advancing Translational Sciences (NCATS), 2024)
The whole screen tested about 46,000 compounds, of which about 60 (0.1%) were called active. About 3% were inconclusive and are not listed. Calls come from the whole dose curve; as a rule, active = well fitted inhibition curve with a large enough effect; inconclusive = small, poorly fitted or top-dose-only effect; inactive = no such curve, though single readings can be large or run the other way. The list shows a part of the results.

Assay: Primary qHTS assay for Inhibitors of ovarian cancer metastasis using an organotypic tumor microenvironment (TME) model.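 For activity change, negative = inhibition: plate controls were DMSO wells for no effect and tomatine positive control wells for full effect.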 Note: nearly all actives have a fitted effect of over 65% in size.
Conditions: SKOV3ip1-GFP adhesion/invasion on 3D omental model, fluorescence; series mostly up to 45.8 µM; activity change, negative = inhibition: at the top concentration
Summary of the method: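 Adhesion/invasion was scored as fixed GFP-labeled SKOV3ip1 cell counts (488/509 nm), normalized to DMSO and tomatine controls. Cancer cells in serum-free medium, with four compound doses (0.36-46 umol/L), sat 2 hr at RT then 16 hr at 37 C on a 48 hr fibroblast/mesothelial/ECM culture.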

Activity change, negative = inhibition, inactive:
COc1cccc(-c2nn(C)c3sc(C(=O)NCCc4cccc(C)c4)cc23)c1 8.31%
O=C(Nc1ccc2nc(SCCOc3ccccc3Cl)sc2c1)c1ccco1 -5.53%
CCc1cccc(NC(=O)CSc2n[nH]c(-c3ccccc3Cl)n2)c1 4.85%
CCCNC(=O)Cn1ncc2c3ccccc3n(CCC)c2c1=O 2.76%
CCOc1ccc(OCC)c(NC(=O)c2cnn(-c3ccc(F)cc3)c2C2CCN(C(=O)OC(C)(C)C)CC2)c1 -2.61%
Cn1c(NCCN(CCO)CCCc2ccc([N+](=O)[O-])cc2)cc(=O)n(C)c1=O -11.4%
COc1ccc(-c2ccc(-c3noc(-c4cc(OC)cc(OC)c4)n3)c(OC)n2)cc1 1.29%
COC(=O)Nc1nc2ccc(C(=O)c3ccccc3)cc2[nH]1 9.69%
COc1ccc(-n2ccnc(NCc3cccs3)c2=O)cc1 0.205%
CCOc1ccc2c(c1)c(=O)c(C(=O)c1ccc3c(c1)OCO3)cn2Cc1cccc(F)c1 -2.31%
O=c1c2c3c(sc2nnn1Cc1ccc(F)cc1)CCCC3 9.8%
Cc1ccc(C(=O)Nc2nnc(S(=O)(=O)N(C)Cc3ccc(F)cc3)s2)cc1 -29.8%
CCOc1ccc(-c2nnc(SCC(=O)Oc3ccccc3)o2)cc1 -4.15%
COc1ccc2c(c1)CC(NC(=O)Nc1c(C)cc(C)cc1C)CO2 (stereo not drawn) -9.69%
CCOc1ccc(NS(=O)(=O)c2ccc3[nH]cc(C(=O)N(C)Cc4ccccc4)c(=O)c3c2)cc1 0.917%
COc1ccc(NC(=O)c2oc3ccccc3c2NC(=O)c2cc3ccccc3o2)cc1 -1.05%
Cc1ccccc1S(=O)(=O)Cc1ccc(C(=O)NC2CCCCC2)o1 -5.33%
Cc1cccc(-n2c3nc(=O)[nH]c(=O)c-3cc3c(Cl)cccc32)c1C -18.5%
COc1ccc(C)cc1S(=O)(=O)N1CCN(c2cccc(Cl)c2)CC1 -20.1%
CCOc1cccc2cc(-c3nc4ccc(C(=O)O)cc4[nH]3)c(=O)oc12 -16%
CCOc1ccc(NC(=O)CSc2nnc3scc(-c4ccc(Cl)cc4)n23)cc1 0.478%
COc1cccc(NC(=O)CSc2ncc(S(=O)(=O)c3ccc(C)c(C)c3)c(=O)[nH]2)c1 6.55%
COc1ccccc1CNC(=O)c1ccc(N2CCCC2)c(NC(=O)NCCC(C)C)c1 -4.05%
Cc1cc(C)c(NC(=O)c2cc3sc(Cl)cc3n2C)c(C)c1 1.51%
O=C(COc1ccc(F)cc1)Nc1ccc2nc(SCC(=O)N3CCc4ccccc43)sc2c1 4.46%
Cc1oc2ncn(CC(C)C)c(=O)c2c1C(=O)NCCCN1CCCCC1 0.523%
CC(=O)Nc1ccc(C2Sc3ccccc3NC3=C2C(=O)c2ccccc23)cc1 (stereo not drawn) -23%
CCOC(=O)c1ccc2oc(=O)n(Cc3ccccc3)c2c1 4.28%
Cc1ccc(C)c(CN2C(=O)c3ccccc3S(=O)(=O)c3ccc(C(=O)N4CCCCCC4)cc32)c1 -1.36%
O=C(NCC(c1ccco1)S(=O)(=O)c1cccs1)c1ccc(F)cc1 (stereo not drawn) -4.96%
c1ccc2c(Cc3c[nH]c4ccccc34)c[nH]c2c1 -5.18%
CSc1cccc(NC(=O)Cn2c3ncccc3c(=O)n2-c2ccc(C)cc2)c1 0.71%
CCc1c(-c2ccccc2)nc2ccccc2c1C(=O)NCCc1ccccc1 -9.97%
CC(=O)c1ccc(N2CCN(S(=O)(=O)c3ccc(-c4cc(C(F)(F)F)on4)s3)CC2)cc1 -4.66%
Cc1ccccc1OCC(=O)OCc1cc(=O)n2nc(C3CCCCC3)sc2n1 -0.114%
Cc1ccc2c(=O)cc(C(=O)Nc3cccc(Cl)c3C)oc2c1C -4.49%
COc1cc(NC(=O)CCc2nc(-c3cccs3)no2)cc(OC)c1OC 6.75%
CCC(=O)N1CCN(c2ccc(-n3c(=O)ccc4cnc5ccc(-c6cnc7ccccc7c6)cc5c43)cc2C(F)(F)F)CC1 9.73%
COc1ccc(OCCCCn2c(-c3ccc(Cl)cc3)nc3ccccc3c2=O)cc1 -20.7%
Cc1ccc(C(C)C)c(OCC(=O)Nc2ccc(C(=O)OC3CCCCC3)cc2)c1 3.5%
CCOc1ccc(-c2nc(SCC(=O)Nc3ccc(C)c(C)c3)n3[nH]c(=O)cc3n2)cc1 1.03%
CC(C)CC(C(=O)NCc1ccc(F)cc1)N1Cc2ccccc2C1=O (stereo not drawn) -2.5%
COCCn1ccc2c(OCC(=O)Nc3cccc(OC)c3)cccc2c1=O -7.93%
Cc1cccc(NC(=O)CSc2nc(-c3ccccc3)cn2-c2ccccc2)c1C 0.082%
Cc1ccc(C)c(-n2c(CCC(=O)O)ccc2-c2ccc(Cl)cc2)c1 -6.17%
COc1ccc(Nc2ncc(C(=O)N3CCN(c4cccc(Cl)c4)CC3)c3ccccc23)cc1 5.97%
COc1cccc(CNC(=O)Cc2ccc(NC(=O)N3CCCCc4ccccc43)cc2)c1OC -5.19%
CCc1nnc(SCc2nc(-c3ccc(OC)c(OC)c3)oc2C)c2cc3sc(C)cc3n12 -1.43%

outcome, inactive:
CCOC(=O)C1CCCN(C(=O)Cn2ncc3c(C)n(Cc4ccc(F)cc4)c(C)c3c2=O)C1 (stereo not drawn)
CCOc1ccc(-n2c(C)nc3cc(C(=O)NCc4ccc(C)cc4)ccc32)cc1
CC1CCCN(c2nc(-c3ccccc3O)nc3ccccc23)C1 (stereo not drawn)
CCn1c(=O)cc(SCC(=O)Nc2cc(Cl)ccc2OC)c2ccccc21
Cc1ccc(OC(=O)c2cc(-c3ccc4c(c3)OCCO4)on2)cc1C
CC(=O)N1CCc2c(sc3c2c(=O)n(-c2ccccc2)c(=O)n3CC(=O)Nc2ccccc2C)C1
COc1cc2oc(=O)c(CC(=O)N3CCCCC3)c(C)c2cc1Cl
Cc1csc2nc(COc3ccccc3NC(=O)c3ccco3)cc(=O)n12
Cn1c(=O)c2c(-c3ccccc3Cl)n(-c3cc(Cl)ccc3O)cc2n(C)c1=O
Cc1cc(Nc2cccc(C)c2C)n2cnnc2n1
Cc1ccc(C(=O)CC2(O)C(=O)N(CCc3ccccc3)c3ccc(Cl)cc32)cc1 (stereo not drawn)
CCCCCOC(=O)CSc1ncnc2c1sc1nc(N3CCOCC3)c3c(c12)CCCC3
COc1ccc(CNC(=O)c2c(O)nc3cc(C)ccn3c2=O)cc1
Cc1nc(C)c(-c2ccc(SCC(=O)Nc3ccc(C)c(F)c3)nn2)s1
CCc1ccc2ncc3c(-c4ccc(F)cc4)nn(CC(=O)NCc4ccccc4)c3c2c1
